The list shows a part of the results.
Tests used:
Experiment in all cases: glycan array binding signal (z-score within array); higher = stronger binding
Settings in all cases: glycan notation: IUPAC condensed, linker removed; mutation: F63H
[1] = molecular target: Gal(b1-4)GlcNAc(b1-3)Gal(b1-4)GlcNAc(b1-3)Gal(b1-4)GlcNAc(b1-3)Gal(b1-4)GlcNAc(b1-2)Man(a1-3)[Gal(b1-4)GlcNAc(b1-3)Gal(b1-4)GlcNAc(b1-3)Gal(b1-4)GlcNAc(b1-3)Gal(b1-4)GlcNAc(b1-2)Man(a1-6)]Man(b1-4)GlcNAc(b1-4)GlcNAc
In short: (§1)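 The binding signal is a Z-score computed within each array and averaged over linkers. Arrays of the same protein sequence at different concentrations or buffers were also averaged together. Data originate from 3228 arrays in the Consortium for Functional Glycomics database, kept only where the protein sequence was available.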

[2] = molecular target: Gal(b1-4)GlcNAc(b1-3)Gal(b1-4)GlcNAc(b1-3)Gal(b1-4)GlcNAc(b1-3)Gal(b1-4)GlcNAc(b1-2)Man(a1-3)[Gal(b1-4)GlcNAc(b1-3)Gal(b1-4)GlcNAc(b1-3)Gal(b1-4)GlcNAc(b1-3)Gal(b1-4)GlcNAc(b1-2)Man(a1-6)]Man(b1-4)GlcNAc(b1-4)[Fuc(a1-6)]GlcNAc
In short: as §1

[3] = molecular target: Gal(b1-4)GlcNAc(b1-3)Gal(b1-4)GlcNAc(b1-3)Gal(b1-4)GlcNAc(b1-3)Gal(b1-4)GlcNAc(b1-2)[Gal(b1-4)GlcNAc(b1-3)Gal(b1-4)GlcNAc(b1-3)Gal(b1-4)GlcNAc(b1-3)Gal(b1-4)GlcNAc(b1-6)]Man(a1-6)[Gal(b1-4)GlcNAc(b1-3)Gal(b1-4)GlcNAc(b1-3)Gal(b1-4)GlcNAc(b1-3)Gal(b1-4)GlcNAc(b1-2)Man(a1-3)]Man(b1-4)GlcNAc(b1-4)[Fuc(a1-6)]GlcNAc
In short: as §1

[4] = molecular target: Gal(b1-4)GlcNAc(b1-3)Gal(b1-4)GlcNAc(b1-3)Gal(b1-4)GlcNAc(b1-3)Gal(b1-4)GlcNAc(b1-3)Gal(b1-4)GlcNAc(b1-2)Man(a1-3)[Gal(b1-4)GlcNAc(b1-3)Gal(b1-4)GlcNAc(b1-3)Gal(b1-4)GlcNAc(b1-3)Gal(b1-4)GlcNAc(b1-3)Gal(b1-4)GlcNAc(b1-2)Man(a1-6)]Man(b1-4)GlcNAc(b1-4)GlcNAc
In short: as §1

[5] = molecular target: Gal(b1-4)GlcNAc(b1-3)Gal(b1-4)GlcNAc(b1-3)Gal(b1-4)GlcNAc(b1-3)Gal(b1-4)GlcNAc(b1-3)Gal(b1-4)GlcNAc(b1-2)Man(a1-3)[Gal(b1-4)GlcNAc(b1-3)Gal(b1-4)GlcNAc(b1-3)Gal(b1-4)GlcNAc(b1-3)Gal(b1-4)GlcNAc(b1-3)Gal(b1-4)GlcNAc(b1-2)Man(a1-6)]Man(b1-4)GlcNAc(b1-4)[Fuc(a1-6)]GlcNAc
In short: as §1

[6] = molecular target: Gal(b1-4)GlcNAc(b1-3)Gal(b1-4)GlcNAc(b1-3)Gal(b1-4)GlcNAc(b1-3)Gal(b1-4)GlcNAc(b1-3)Gal(b1-4)GlcNAc(b1-2)[Gal(b1-4)GlcNAc(b1-3)Gal(b1-4)GlcNAc(b1-3)Gal(b1-4)GlcNAc(b1-3)Gal(b1-4)GlcNAc(b1-3)Gal(b1-4)GlcNAc(b1-6)]Man(a1-6)[Gal(b1-4)GlcNAc(b1-3)Gal(b1-4)GlcNAc(b1-3)Gal(b1-4)GlcNAc(b1-3)Gal(b1-4)GlcNAc(b1-3)Gal(b1-4)GlcNAc(b1-2)Man(a1-3)]Man(b1-4)GlcNAc(b1-4)[Fuc(a1-6)]GlcNAc
In short: as §1

[7] = molecular target: Gal(b1-4)GlcNAc(b1-3)Gal(b1-4)GlcNAc(b1-3)Gal(b1-4)GlcNAc(b1-3)Gal(b1-4)GlcNAc(b1-3)Gal(b1-4)GlcNAc(b1-3)Gal(b1-4)GlcNAc(b1-2)Man(a1-3)[Gal(b1-4)GlcNAc(b1-3)Gal(b1-4)GlcNAc(b1-3)Gal(b1-4)GlcNAc(b1-3)Gal(b1-4)GlcNAc(b1-3)Gal(b1-4)GlcNAc(b1-3)Gal(b1-4)GlcNAc(b1-2)Man(a1-6)]Man(b1-4)GlcNAc(b1-4)GlcNAc
In short: as §1

[8] = molecular target: Gal(b1-4)GlcNAc(b1-3)Gal(b1-4)GlcNAc(b1-3)GalNAc
In short: as §1

[9] = molecular target: Gal(b1-4)GlcNAc(b1-3)Gal(b1-4)GlcNAc(b1-3)[Gal(b1-4)GlcNAc(b1-3)Gal(b1-4)GlcNAc(b1-6)]GalNAc
In short: as §1

[10] = molecular target: Gal(b1-4)GlcNAc(b1-3)Gal(b1-4)GlcNAc(b1-6)[Gal(b1-3)]GalNAc
In short: as §1

[11] = molecular target: Gal(b1-4)GlcNAc(b1-3)Gal(b1-4)[Fuc(a1-3)]GlcNAc(b1-3)Gal(b1-4)[Fuc(a1-3)]GlcNAc
In short: as §1

[12] = molecular target: Gal(b1-4)GlcNAc(b1-3)GalNAc
In short: as §1

[13] = molecular target: Gal(b1-4)GlcNAc(b1-3)[Fuc(a1-3)GlcNAc(b1-6)]Gal(b1-4)Glc
In short: as §1

[14] = molecular target: Gal(b1-4)GlcNAc(b1-3)[Gal(b1-4)GlcNAc(b1-6)]Gal(b1-4)GlcNAc
In short: as §1

[15] = molecular target: Gal(b1-4)GlcNAc(b1-3)[GlcNAc(b1-6)]Gal(b1-4)GlcNAc
In short: as §1

[16] = molecular target: Gal(b1-4)GlcNAc(b1-6)Gal(b1-4)GlcNAc
In short: as §1

[17] = molecular target: Gal(b1-4)GlcNAc(b1-6)GalNAc
In short: as §1

[18] = molecular target: Gal(b1-4)GlcNAc(b1-6)[Gal(b1-3)]GalNAc
In short: as §1

[19] = molecular target: Gal(b1-4)GlcNAc(b1-6)[Gal(b1-4)GlcNAc(b1-3)]GalNAc
In short: as §1

Gal(b1-4)GlcNAc6P = molecular target: Gal(b1-4)GlcNAc6P
In short: as §1

Gal(b1-6)Gal = molecular target: Gal(b1-6)Gal
In short: as §1

Gal3S(b1-3)GalNAc = molecular target: Gal3S(b1-3)GalNAc
In short: as §1

Gal3S(b1-3)GlcNAc = molecular target: Gal3S(b1-3)GlcNAc
In short: as §1

B1: AAL (Agrocybe aegerita), Q6WY08 (protein)
chain: MQGVNIYNISAGTSVDLAAPVTTGDIVTFFSSALNLNAGAGNPNNTTLNLFAENGAYLLHIAHRLQENVIIFNSRQPDGPWLVEQRVSDVANQFAGIDGKAMVTVFDHGDKYQVVINEKTVIQYTKQISGLTLSLSYNATEETSIFSTVVEAVTYTGLALEHHHHHH
B1 was tested, and the “glycan array binding signal (z-score)” value [1] was 0.144, the “glycan array binding signal (z-score)” value [2] was 0.394 and the “glycan array binding signal (z-score)” value [3] was 0.63. The “glycan array binding signal (z-score)” value [4] was -0.037, the “glycan array binding signal (z-score)” value [5] was -0.033 and the “glycan array binding signal (z-score)” value [6] was -0.207. For the same binder, the “glycan array binding signal (z-score)” value [7] was 0.376, the “glycan array binding signal (z-score)” value [8] was -0.163 and the “glycan array binding signal (z-score)” value [9] was 0.226. The “glycan array binding signal (z-score)” value [10] was -0.777, the “glycan array binding signal (z-score)” value [11] was 0.354 and the “glycan array binding signal (z-score)” value [12] was -0.105. The “glycan array binding signal (z-score)” value [13] was -0.308, the “glycan array binding signal (z-score)” value [14] was 0.113 and the “glycan array binding signal (z-score)” value [15] was -0.344. The “glycan array binding signal (z-score)” value [16] was -0.305, the “glycan array binding signal (z-score)” value [17] was -0.051 and the “glycan array binding signal (z-score)” value [18] was 0.187. For the same binder, the “glycan array binding signal (z-score)” value [19] was -0.175, the “glycan array binding signal (z-score)” value (Gal(b1-4)GlcNAc6P) was 0.049 and the “glycan array binding signal (z-score)” value (Gal(b1-6)Gal) was -0.264. The “glycan array binding signal (z-score)” value (Gal3S(b1-3)GalNAc) was -0.302 and the “glycan array binding signal (z-score)” value (Gal3S(b1-3)GlcNAc) was -0.185.

Source: the supplement of paper PMC8728848
